# In the supplement of paper PMC8728848:
# Some of the results follow.
# B1: Epa23 (Candida glabrata) (protein)
# chain: MGSSHHHHHHSSGLVPRGSHMIPNPFEGTINNFPSGCSPNHGLYNRGLTMELYNYSYIHPQSIQSYFNTSTLKKMEKGQCWDPSYLDVNYPRTGYKTHNRFAKVNGIDGILDFEFNPTRSCVPSKGQLPQNYNYPLQFTLSNFTMLLYGYFKPKVTAKHTFTIFADDLLFLNFGAGNAFDCCQQQDTIDDFGNYQAYALWGSDTQQNTLTVNLDANIYYPIRMFYNNRDFKGALNMYFTTDESNTKINDFSGYLFNIPDSSEGCPAHISYETECGNVSG
# Tests used:
# Assay in all cases: glycan array binding signal (z-score within array); higher = stronger binding
# Conditions in all cases: glycan notation: IUPAC condensed, linker removed
# [1] = target: Neu5Ac(a2-3)Gal(b1-4)GlcNAc(b1-3)[Neu5Ac(a2-3)Gal(b1-4)GlcNAc(b1-6)]GalNAc
# Summary of the method: (§1)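 Glycan array data came from 3228 arrays in the Consortium for Functional Glycomics database, and only arrays with an available protein sequence were kept. Glycan names were put into IUPAC-condensed notation, and columns mapping to the same glycan were averaged. The binding signal is a within-array Z-score, averaged across arrays of one protein sequence run at different concentrations or buffers and across linkers. A negative Z-score can be read as non-binding.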
# [2] = target: Neu5Ac(a2-3)Gal(b1-4)GlcNAc(b1-6)GalNAc
# Summary of the method: as §1
# [3] = target: Neu5Ac(a2-3)Gal(b1-4)GlcNAc(b1-6)[Gal(b1-3)]GalNAc
# Summary of the method: as §1
# [4] = target: Neu5Ac(a2-3)Gal(b1-4)GlcNAc(b1-6)[Neu5Ac(a2-3)Gal(b1-3)]GalNAc
# Summary of the method: as §1
# [5] = target: Neu5Ac(a2-3)Gal(b1-4)GlcNAc6S
# Summary of the method: as §1
# [6] = target: Neu5Ac(a2-3)Gal(b1-4)[Fuc(a1-3)]GlcNAc
# Summary of the method: as §1
# [7] = target: Neu5Ac(a2-3)Gal(b1-4)[Fuc(a1-3)]GlcNAc(b1-2)Man
# Summary of the method: as §1
# [8] = target: Neu5Ac(a2-3)Gal(b1-4)[Fuc(a1-3)]GlcNAc(b1-3)Gal
# Summary of the method: as §1
# [9] = target: Neu5Ac(a2-3)Gal(b1-4)[Fuc(a1-3)]GlcNAc(b1-3)Gal(b1-4)GlcNAc
# Summary of the method: as §1
# [10] = target: Neu5Ac(a2-3)Gal(b1-4)[Fuc(a1-3)]GlcNAc(b1-3)Gal(b1-4)[Fuc(a1-3)]GlcNAc(b1-3)Gal(b1-4)[Fuc(a1-3)]GlcNAc
# Summary of the method: as §1
# [11] = target: Neu5Ac(a2-3)Gal(b1-4)[Fuc(a1-3)]GlcNAc(b1-3)GalNAc
# Summary of the method: as §1
# [12] = target: Neu5Ac(a2-3)Gal(b1-4)[Fuc(a1-3)]GlcNAc(b1-6)[Gal(b1-3)]GalNAc
# Summary of the method: as §1
# [13] = target: Neu5Ac(a2-3)Gal(b1-4)[Fuc(a1-3)]GlcNAc(b1-6)[Neu5Ac(a2-3)Gal(b1-3)]GalNAc
# Summary of the method: as §1
# [14] = target: Neu5Ac(a2-3)Gal(b1-4)[Fuc(a1-3)]GlcNAc6S
# Summary of the method: as §1
# [15] = target: Neu5Ac(a2-3)Gal6S(b1-4)GlcNAc
# Summary of the method: as §1
# [16] = target: Neu5Ac(a2-3)Gal6S(b1-4)[Fuc(a1-3)]GlcNAc
# Summary of the method: as §1
# Neu5Ac(a2-3)GalNAc = target: Neu5Ac(a2-3)GalNAc
# Summary of the method: as §1
# [17] = target: Neu5Ac(a2-3)GalNAc(b1-4)GlcNAc
# Summary of the method: as §1
# [18] = target: Neu5Ac(a2-3)[GalNAc(b1-4)]Gal(b1-4)Glc
# Summary of the method: as §1
# [19] = target: Neu5Ac(a2-3)[GalNAc(b1-4)]Gal(b1-4)GlcNAc
# Summary of the method: as §1
# [20] = target: Neu5Ac(a2-3)[GalNAc(b1-4)]Gal(b1-4)GlcNAc(b1-3)GalNAc
# Summary of the method: as §1
# [21] = target: Neu5Ac(a2-3)[Neu5Ac(a2-6)]GalNAc
# Summary of the method: as §1
# Neu5Ac(a2-6)Gal = target: Neu5Ac(a2-6)Gal
# Summary of the method: as §1
# [22] = target: Neu5Ac(a2-6)Gal(b1-3)GlcNAc(b1-3)[Gal(b1-4)GlcNAc(b1-6)]Gal(b1-4)Glc
# Summary of the method: as §1
# Neu5Ac(a2-6)Gal(b1-4)Glc = target: Neu5Ac(a2-6)Gal(b1-4)Glc
# Summary of the method: as §1
# [23] = target: Neu5Ac(a2-6)Gal(b1-4)GlcNAc
# Summary of the method: as §1
# [24] = target: Neu5Ac(a2-6)Gal(b1-4)GlcNAc(b1-2)Man
# Summary of the method: as §1
# [25] = target: Neu5Ac(a2-6)Gal(b1-4)GlcNAc(b1-2)Man(a1-3)Man(b1-4)GlcNAc(b1-4)GlcNAc
# Summary of the method: as §1
# [26] = target: Neu5Ac(a2-6)Gal(b1-4)GlcNAc(b1-2)Man(a1-3)[Gal(b1-4)GlcNAc(b1-2)Man(a1-6)]Man(b1-4)GlcNAc(b1-4)GlcNAc
# Summary of the method: as §1
# [27] = target: Neu5Ac(a2-6)Gal(b1-4)GlcNAc(b1-2)Man(a1-3)[GlcNAc(b1-2)Man(a1-6)]Man(b1-4)GlcNAc(b1-4)GlcNAc
# Summary of the method: as §1
# [28] = target: Neu5Ac(a2-6)Gal(b1-4)GlcNAc(b1-2)Man(a1-3)[GlcNAc(b1-4)][Neu5Ac(a2-6)Gal(b1-4)GlcNAc(b1-2)Man(a1-6)]Man(b1-4)GlcNAc(b1-4)GlcNAc
# Summary of the method: as §1
# [29] = target: Neu5Ac(a2-6)Gal(b1-4)GlcNAc(b1-2)Man(a1-3)[Man(a1-6)]Man(b1-4)GlcNAc(b1-4)GlcNAc
# Summary of the method: as §1
# [30] = target: Neu5Ac(a2-6)Gal(b1-4)GlcNAc(b1-2)Man(a1-3)[Neu5Ac(a2-3)Gal(b1-4)GlcNAc(b1-2)Man(a1-6)]Man(b1-4)GlcNAc(b1-4)GlcNAc
# Summary of the method: as §1
# [31] = target: Neu5Ac(a2-6)Gal(b1-4)GlcNAc(b1-2)Man(a1-3)[Neu5Ac(a2-6)Gal(b1-4)GlcNAc(b1-2)Man(a1-6)]Man(b1-4)GlcNAc(b1-4)GlcNAc
# Summary of the method: as §1
# [32] = target: Neu5Ac(a2-6)Gal(b1-4)GlcNAc(b1-2)Man(a1-3)[Neu5Ac(a2-6)Gal(b1-4)GlcNAc(b1-2)Man(a1-6)]Man(b1-4)GlcNAc(b1-4)[Fuc(a1-6)]GlcNAc
# Summary of the method: as §1
# [33] = target: Neu5Ac(a2-6)Gal(b1-4)GlcNAc(b1-2)Man(a1-6)Man(b1-4)GlcNAc(b1-4)GlcNAc
# Summary of the method: as §1
# [34] = target: Neu5Ac(a2-6)Gal(b1-4)GlcNAc(b1-2)Man(a1-6)[Gal(b1-4)GlcNAc(b1-2)Man(a1-3)]Man(b1-4)GlcNAc(b1-4)GlcNAc
# Summary of the method: as §1
# [35] = target: Neu5Ac(a2-6)Gal(b1-4)GlcNAc(b1-2)Man(a1-6)[GlcNAc(b1-2)Man(a1-3)]Man(b1-4)GlcNAc(b1-4)GlcNAc
# Summary of the method: as §1
# [36] = target: Neu5Ac(a2-6)Gal(b1-4)GlcNAc(b1-2)Man(a1-6)[Man(a1-3)]Man(b1-4)GlcNAc(b1-4)GlcNAc
# Summary of the method: as §1
# [37] = target: Neu5Ac(a2-6)Gal(b1-4)GlcNAc(b1-2)[Neu5Ac(a2-6)Gal(b1-4)GlcNAc(b1-4)]Man(a1-3)[GlcNAc(b1-4)][Neu5Ac(a2-6)Gal(b1-4)GlcNAc(b1-2)[Neu5Ac(a2-6)Gal(b1-4)GlcNAc(b1-6)]Man(a1-6)]Man(b1-4)GlcNAc(b1-4)GlcNAc
# Summary of the method: as §1
# [38] = target: Neu5Ac(a2-6)Gal(b1-4)GlcNAc(b1-2)[Neu5Ac(a2-6)Gal(b1-4)GlcNAc(b1-4)]Man(a1-3)[GlcNAc(b1-4)][Neu5Ac(a2-6)Gal(b1-4)GlcNAc(b1-4)Man(a1-6)]Man(b1-4)GlcNAc(b1-4)GlcNAc
# Summary of the method: as §1
# [39] = target: Neu5Ac(a2-6)Gal(b1-4)GlcNAc(b1-2)[Neu5Ac(a2-6)Gal(b1-4)GlcNAc(b1-6)]Man(a1-6)[Neu5Ac(a2-6)Gal(b1-4)GlcNAc(b1-2)Man(a1-3)][GlcNAc(b1-4)]Man(b1-4)GlcNAc(b1-4)GlcNAc
# Summary of the method: as §1
# [40] = target: Neu5Ac(a2-6)Gal(b1-4)GlcNAc(b1-3)Gal(b1-3)GlcNAc
# Summary of the method: as §1
# [41] = target: Neu5Ac(a2-6)Gal(b1-4)GlcNAc(b1-3)Gal(b1-4)GlcNAc
# Summary of the method: as §1
# [42] = target: Neu5Ac(a2-6)Gal(b1-4)GlcNAc(b1-3)Gal(b1-4)GlcNAc(b1-2)Man(a1-3)[Neu5Ac(a2-6)Gal(b1-4)GlcNAc(b1-3)Gal(b1-4)GlcNAc(b1-2)Man(a1-6)]GalNAc
# Summary of the method: as §1
binder,measurement,setting,value
B1,glycan array binding signal (z-score),[1],-0.265
same,glycan array binding signal (z-score),[2],-0.232
same,glycan array binding signal (z-score),[3],0.024
same,glycan array binding signal (z-score),[4],-0.31
same,glycan array binding signal (z-score),[5],-0.201
same,glycan array binding signal (z-score),[6],-0.2
same,glycan array binding signal (z-score),[7],-0.186
same,glycan array binding signal (z-score),[8],-0.21
same,glycan array binding signal (z-score),[9],-0.288
same,glycan array binding signal (z-score),[10],-0.207
same,glycan array binding signal (z-score),[11],-0.082
same,glycan array binding signal (z-score),[12],-0.196
same,glycan array binding signal (z-score),[13],-0.165
same,glycan array binding signal (z-score),[14],-0.174
same,glycan array binding signal (z-score),[15],-0.198
same,glycan array binding signal (z-score),[16],-0.302
same,glycan array binding signal (z-score),Neu5Ac(a2-3)GalNAc,-0.218
same,glycan array binding signal (z-score),[17],-0.153
same,glycan array binding signal (z-score),[18],-0.189
same,glycan array binding signal (z-score),[19],-0.198
same,glycan array binding signal (z-score),[20],-0.176
same,glycan array binding signal (z-score),[21],-0.213
same,glycan array binding signal (z-score),Neu5Ac(a2-6)Gal,-0.164
same,glycan array binding signal (z-score),[22],-0.017
same,glycan array binding signal (z-score),Neu5Ac(a2-6)Gal(b1-4)Glc,-0.217
same,glycan array binding signal (z-score),[23],-0.231
same,glycan array binding signal (z-score),[24],-0.214
same,glycan array binding signal (z-score),[25],-0.212
same,glycan array binding signal (z-score),[26],-0.217
same,glycan array binding signal (z-score),[27],-0.134
same,glycan array binding signal (z-score),[28],-0.186
same,glycan array binding signal (z-score),[29],-0.221
same,glycan array binding signal (z-score),[30],-0.094
same,glycan array binding signal (z-score),[31],-0.143
same,glycan array binding signal (z-score),[32],-0.151
same,glycan array binding signal (z-score),[33],-0.202
same,glycan array binding signal (z-score),[34],-0.017
same,glycan array binding signal (z-score),[35],-0.247
same,glycan array binding signal (z-score),[36],-0.157
same,glycan array binding signal (z-score),[37],-0.196
same,glycan array binding signal (z-score),[38],-0.246
same,glycan array binding signal (z-score),[39],-0.183
same,glycan array binding signal (z-score),[40],-0.116
same,glycan array binding signal (z-score),[41],-0.11
same,glycan array binding signal (z-score),[42],-0.071
